From the supplement of paper PMC4604168 (melanoma cell lines)
The other results are listed elsewhere or left out. Single values are uncertain, as repeats are few or missing.

Tests used:
Experiment in all cases: cell count relative to DMSO control; melanoma cells; higher = more viable cells
Settings in all cases: library dose: low library concentration; 72 h
[1] = system: MZ2-MEL
[2] = system: MeWo
[3] = system: RPMI7951
[4] = system: RVH-421
[5] = system: SkMel28
[6] = system: SkMel2
[7] = system: SkMel30
[8] = system: SkMel5
[9] = system: UACC257
[10] = system: UACC62
[11] = system: WM115
[12] = system: WM1716
[13] = system: WM1745
[14] = system: WM3526
[15] = system: WM3619
[16] = system: WM451Lu
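Also: cell number obtained by counting DAPI-stained nuclei in high-throughput microscope images with image analysis software, screen run in 1,536-well plates.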

Row | SMILES | cell count [1] | cell count [2] | cell count [3] | cell count [4] | cell count [5] | cell count [6] | cell count [7] | cell count [8] | cell count [9] | cell count [10] | cell count [11] | cell count [12] | cell count [13] | cell count [14] | cell count [15] | cell count [16]
1 | CC(=O)O[C@@]12CO[C@@H]1C[C@H](O)[C@@]1(C)C(=O)[C@H](O)C3=C(C)[C@@H](OC(=O)[C@H](O)[C@@H](NC(=O)OC(C)(C)C)c4ccccc4)C[C@@](O)([C@@H](OC(=O)c4ccccc4)[C@H]21)C3(C)C [Docetaxel] + C=CCn1c(=O)c2cnc(Nc3ccc(N4CCN(C)CC4)cc3)nc2n1-c1cccc(C(C)(C)O)n1 [MK1775] (first compound 0.0001 µM, partner dose 0.02 µM) | 44.9% | 46.1% | 29.7% | 53.8% | 35.7% | 43.1% | 32.9% | 83.2% | 47.3% | 42.3% | 54.7% | 32.4% | 33.9% | 42% | 64.7% | 51.8%
2 | CC(=O)c1c(C)c2cnc(Nc3ccc(N4CCNCC4)cn3)nc2n(C2CCCC2)c1=O [palbociclib] + CN(NC(=O)CC(=O)NN(C)C(=S)c1ccccc1)C(=S)c1ccccc1 [STA4783] (first compound 0.04 µM, partner dose 0.006 µM) | 88.2% | 69.8% | 95.1% | 83.9% | 65% | 73% | 70.4% | 82.1% | 90.6% | 56% | 77.2% | 52.1% | 21.5% | 60.4% | 14.8% | 89.3%
3 | Nc1nc(F)nc2c1ncn2[C@@H]1O[C@H](CO)[C@@H](O)[C@@H]1O [fludarabine] + COc1cc2ncnc(Nc3ccc(Oc4ccccc4)cc3)c2cc1OC [SrcI1] (first compound 0.2 µM, partner dose 2 µM) | 98.2% | 42.8% | 81.6% | 114% | 93.6% | 12.3% | 21.2% | 69.9% | 94.9% | 98.4% | 96.3% | 97.6% | 89.3% | 34.1% | 104% | 45.3%
4 | CC(=O)c1c(C)c2cnc(Nc3ccc(N4CCNCC4)cn3)nc2n(C2CCCC2)c1=O [palbociclib] + COc1ccc2c(c1)CCC1C2CCC2(C)C(NCCCCCCN3C(=O)C=CC3=O)CCC12 [U73122] (first compound 0.04 µM, partner dose 0.4 µM) | 92.3% | 104% | 69.6% | 112% | 110% | 97.4% | 82.5% | 90.8% | 89.8% | 95.8% | 77% | 72.4% | 76.1% | 61.6% | 100% | 98.2%
5 | Nc1ncn([C@H]2C[C@H](O)[C@@H](CO)O2)c(=O)n1 [decitabine] + Cc1cc([N+](=O)[O-])ccc1NS(=O)(=O)c1cc(Cl)ccc1Cl [FH535] (first compound 0.1 µM, partner dose 1 µM) | 81.3% | 89.2% | 94.9% | 86% | 88.8% | 97.4% | 113% | 82.3% | 93.9% | 67.6% | 77.7% | 89.1% | 94.4% | 113% | 74.3% | 103%
6 | CC(=O)c1c(C)c2cnc(Nc3ccc(N4CCNCC4)cn3)nc2n(C2CCCC2)c1=O [palbociclib] + COc1cc2c(Oc3ccc4[nH]c(C)cc4c3F)ncnc2cc1OCCCN1CCCC1 [cediranib] (first compound 0.04 µM, partner dose 0.4 µM) | 80.8% | 85.2% | 89.4% | 89.3% | 67.7% | 79.6% | 90.7% | 66.5% | 72.6% | 80.7% | 74.9% | 64% | 63.4% | 61.3% | 86.3% | 93.9%
7 | Nc1nc(F)nc2c1ncn2[C@@H]1O[C@H](CO)[C@@H](O)[C@@H]1O [fludarabine] + NCC(=O)Nc1ccc(-n2nc(C(F)(F)F)cc2-c2ccc3c(ccc4ccccc43)c2)cc1 [OSU03012] (first compound 0.2 µM, partner dose 1 µM) | 93.7% | 26.6% | 91.2% | 108% | 56.2% | 4.42% | 15.8% | 51.2% | 65.9% | 82% | 82.6% | 86.1% | 101% | 32.1% | 104% | 52.7%
8 | CC(=O)c1c(C)c2cnc(Nc3ccc(N4CCNCC4)cn3)nc2n(C2CCCC2)c1=O [palbociclib] + O=C1NC(=O)/C(=C/c2ccc(-c3ccc(F)cc3O)o2)S1 [AS252424] (first compound 0.04 µM, partner dose 1 µM) | 78% | 72.9% | 84.3% | 94.8% | 80.4% | 78.2% | 59.2% | 72.4% | 63.7% | 73.4% | 66.8% | 57.5% | 72.8% | 54.3% | 52.3% | 68.6%
9 | Nc1nc(F)nc2c1ncn2[C@@H]1O[C@H](CO)[C@@H](O)[C@@H]1O [fludarabine] + Oc1cc(-c2nc(-c3ccccc3)[nH]c2-c2ccncc2)ccc1Cl [L779450] (first compound 0.2 µM, partner dose 0.2 µM) | 74.8% | 31.5% | 71.3% | 92.1% | 76.5% | 5.66% | 13.8% | 51.4% | 67.9% | 73.4% | 88.7% | 113% | 94.6% | 14.1% | 82.6% | 36%
10 | Nc1nc(F)nc2c1ncn2[C@@H]1O[C@H](CO)[C@@H](O)[C@@H]1O [fludarabine] + c1cc(-c2cnn3cc(-c4ccc(OCCN5CCCCC5)cc4)cnc23)ccn1 [Dorsomorphin] (first compound 0.2 µM, partner dose 0.4 µM) | 106% | 22.5% | 82.2% | 108% | 67.6% | 3.37% | 12.7% | 49.8% | 78.5% | 97.7% | 97.5% | 106% | 98.7% | 20.5% | 96% | 27%
11 | Nc1nc(F)nc2c1ncn2[C@@H]1O[C@H](CO)[C@@H](O)[C@@H]1O [fludarabine] + O=C1NC(=O)/C(=C/c2ccc(-c3ccc(F)cc3O)o2)S1 [AS252424] (first compound 0.2 µM, partner dose 1 µM) | 103% | 30.5% | 95.3% | 109% | 66% | 5.1% | 13.6% | 55.4% | 109% | 78% | 95.2% | 101% | 84.6% | 25.6% | 89.9% | 40.7%
12 | CC(=O)c1c(C)c2cnc(Nc3ccc(N4CCNCC4)cn3)nc2n(C2CCCC2)c1=O [palbociclib] + O=C(Nc1ccccc1)c1cc([N+](=O)[O-])ccc1Cl [GW9662] (first compound 0.04 µM, partner dose 2 µM) | 73% | 69.1% | 68.2% | 95.6% | 85% | 84.2% | 73.3% | 66.7% | 86.9% | 68.1% | 68.3% | 50.2% | 81.6% | 63.9% | 48.6% | 59.7%
13 | CC(=O)O[C@@]12CO[C@@H]1C[C@H](O)[C@@]1(C)C(=O)[C@H](O)C3=C(C)[C@@H](OC(=O)[C@H](O)[C@@H](NC(=O)OC(C)(C)C)c4ccccc4)C[C@@](O)([C@@H](OC(=O)c4ccccc4)[C@H]21)C3(C)C [Docetaxel] + CC(C)(C)c1cnc(CSc2cnc(NC(=O)C3CCNCC3)s2)o1 [SNS-032] (first compound 0.0001 µM, partner dose 0.01 µM) | 44.6% | 36.7% | 44.2% | 74% | 31% | 34.1% | 41.2% | 71.9% | 34.7% | 46.6% | 63.1% | 41.4% | 54.6% | 38.2% | 79.4% | 60%
14 | CC(=O)c1c(C)c2cnc(Nc3ccc(N4CCNCC4)cn3)nc2n(C2CCCC2)c1=O [palbociclib] + O=C(CCCCCCC(=O)Nc1ccccc1)NO [vorinostat] (first compound 0.04 µM, partner dose 0.08 µM) | 78.1% | 71.9% | 83.1% | 89.4% | 62.2% | 81.8% | 77.5% | 65.5% | 69.3% | 65% | 78.4% | 71.5% | 69% | 53.9% | 84.5% | 83.2%
15 | CC(=O)c1c(C)c2cnc(Nc3ccc(N4CCNCC4)cn3)nc2n(C2CCCC2)c1=O [palbociclib] + O=C(O)C(=O)Nc1sc2c(c1C(=O)O)CCNC2 [TCS401] (first compound 0.04 µM, partner dose 1.66667 µM) | 76.6% | 69.9% | 74.1% | 55.4% | 70% | 76.9% | 64% | 71.9% | 77.7% | 78.8% | 69.9% | 59.5% | 63.6% | 65.3% | 73.2% | 79.3%
16 | Nc1ccn([C@@H]2O[C@H](CO)[C@@H](O)C2(F)F)c(=O)n1 [gemcitabine] + COC(=O)c1sccc1S(=O)(=O)Nc1ccc(Nc2ccccc2)cc1OC [GSK0660] (first compound 0.0004 µM, partner dose 1 µM) | 99.8% | 102% | 88% | 88.7% | 94.1% | 106% | 86.8% | 98.5% | 99.4% | 87.6% | 93.6% | 123% | 70.6% | 90.3% | 64.6% | 91.7%
17 | CC(=O)O[C@@]12CO[C@@H]1C[C@H](O)[C@@]1(C)C(=O)[C@H](O)C3=C(C)[C@@H](OC(=O)[C@H](O)[C@@H](NC(=O)OC(C)(C)C)c4ccccc4)C[C@@](O)([C@@H](OC(=O)c4ccccc4)[C@H]21)C3(C)C [Docetaxel] + COC(=O)c1sccc1S(=O)(=O)Nc1ccc(Nc2ccccc2)cc1OC [GSK0660] (first compound 0.0001 µM, partner dose 1 µM) | 50.5% | 44.2% | 41% | 47.1% | 46.6% | 42% | 47.1% | 77.4% | 58.3% | 48.5% | 61.6% | 38.1% | 60.9% | 32.6% | 93.2% | 53.8%
